We go through 153 variants from a collection of fitness landscapes (doi:10.1126/science.1257360).

This is one part of the list.

B1: PhoQ; a variant is named by its letters at X, in order, P23837 (parent)
chain: MKKLLRLFFPLSLRVRFLLATAAVVLVLSLAYGMVALIGYSVSFDKTTFRLLRGESNLFYTLAKWENNKLHVELPENIDKQSPTMTLIYDENGQLLWAQRDVPWLMKMIQPDWLKSNGFHEIEADVNDTSLLLSGDHSIQQQLQEVREDDDDAEMTHSVAVNVYPATSRMPKLTIVVVDTIPVELKSSYMVWSWFIYVLSANLLLVIPLLWVAAWWSLRPIEALAKEVRELEEHNRELLNPATTRELTSLVRNLNRLLKSERERYDKYRTTLTDLTHSLKTPLXXLQXXLRSLRSEKMSVSDAEPVMLEQISRISQQIGYYLHRASMRGGTLLSRELHPVAPLLDNLTSALNKVYQRKGVNISLDISPEISFVGEQNDFVEVMGNVLDNACKYCLEFVEISARQTDEHLYIVVEDDGPGIPLSKREVIFDRGQRVDTLRPGQGVGLAVAREITEQYEGKIVAGESMLGGARMEVIFGRQHSAPKDE

Variants of B1 are the subject of the assay. Description: enrichment ratio after two sorts for PhoP signalling (ratio (wild type AVST 3.29)); higher = more functional. As to conditions: with PhoP (E. coli).
For FQKK, the enrichment ratio was no more than 0.25.

For the variant NGWN, the enrichment ratio is no more than 0.25.

As for QDNY, the enrichment ratio was no more than 0.25.

For the variant DNNS, the enrichment ratio was no more than 0.25.

On to KLEY, for which the enrichment ratio is no more than 0.25.

GVNF: the enrichment ratio was no more than 0.25.

Consider DELA, for which the enrichment ratio is no more than 0.25.

GWDY: the enrichment ratio is no more than 0.25.

Regarding GSCK, the enrichment ratio was no more than 0.25.

With MKCD, the enrichment ratio was no more than 0.25.

For the variant ITAG, the enrichment ratio is no more than 0.25.

For KPEW, the enrichment ratio was no more than 0.25.

Turning to TYKM, the enrichment ratio was no more than 0.25.

Take RLDM: the enrichment ratio is no more than 0.25.

In the case of FWEN, the enrichment ratio was no more than 0.25.

For ECVR, the enrichment ratio was no more than 0.25.

For VEQL, the enrichment ratio was no more than 0.25.

In the case of MHKC, the enrichment ratio is no more than 0.25.

As for GLAG, the enrichment ratio is no more than 0.25.

In the case of SNVR, the enrichment ratio was no more than 0.25.

PYVD: the enrichment ratio is no more than 0.25.

For TRFA, the enrichment ratio is no more than 0.25.

For the variant ADWT, the enrichment ratio is no more than 0.25.

Regarding EYMY, the enrichment ratio was no more than 0.25.

With ENMT, the enrichment ratio is no more than 0.25.

Consider PTIQ, for which the enrichment ratio was no more than 0.25.

Take EMCY: the enrichment ratio is no more than 0.25.

For QTGY, the enrichment ratio was no more than 0.25.

In the case of HPGK, the enrichment ratio was no more than 0.25.

DIHM: the enrichment ratio was no more than 0.25.

Consider HMFG, for which the enrichment ratio was no more than 0.25.

Turning to LGCT, the enrichment ratio was no more than 0.25.

In the case of IIMM, the enrichment ratio is no more than 0.25.

PKCT: the enrichment ratio was no more than 0.25.

In the case of QNMI, the enrichment ratio was no more than 0.25.

On to WYII, for which the enrichment ratio was no more than 0.25.

Regarding HWPR, the enrichment ratio is no more than 0.25.

On to SFCC, for which the enrichment ratio was no more than 0.25.

On to EHQM, for which the enrichment ratio is no more than 0.25.

In the case of EHQT, the enrichment ratio is no more than 0.25.

Take ALAI: the enrichment ratio turned out to be 5.26.

As to RIRV, the enrichment ratio was no more than 0.25.

Consider VELF, for which the enrichment ratio is no more than 0.25.

In the case of RCEP, the enrichment ratio is no more than 0.25.

Turning to MYYV, the enrichment ratio is no more than 0.25.

MESQ: the enrichment ratio turned out to be 7.96.

On to QYDA, for which the enrichment ratio was no more than 0.25.

With FMYM, the enrichment ratio is no more than 0.25.

As for ICSH, the enrichment ratio is no more than 0.25.

As to ATRD, the enrichment ratio was no more than 0.25.

On to YEHE, for which the enrichment ratio is no more than 0.25.

Consider SDHV, for which the enrichment ratio is no more than 0.25.

Take NTID: the enrichment ratio is no more than 0.25.

On to MLWT, for which the enrichment ratio was no more than 0.25.

Take RYVC: the enrichment ratio is no more than 0.25.

For QTFN, the enrichment ratio is 1.88.

Take HQMQ: the enrichment ratio was no more than 0.25.

In the case of HLEF, the enrichment ratio is no more than 0.25.

Turning to ISDF, the enrichment ratio came to 0.318.

Regarding SKKV, the enrichment ratio is no more than 0.25.

Take TVTD: the enrichment ratio is no more than 0.25.

Consider SPYW, for which the enrichment ratio was no more than 0.25.

GRPC: the enrichment ratio was no more than 0.25.

For the variant FTDR, the enrichment ratio was no more than 0.25.

Consider PTEY, for which the enrichment ratio is no more than 0.25.

Turning to NWGG, the enrichment ratio was no more than 0.25.

Turning to SGYI, the enrichment ratio is 2.6.

Take HYHI: the enrichment ratio was no more than 0.25.

TTGT: the enrichment ratio is 5.55.

On to DEYI, for which the enrichment ratio was no more than 0.25.

With HCST, the enrichment ratio is no more than 0.25.

For the variant FHMP, the enrichment ratio is no more than 0.25.

Take KTNE: the enrichment ratio is no more than 0.25.

In the case of DKYE, the enrichment ratio was no more than 0.25.

Turning to DCWI, the enrichment ratio is no more than 0.25.

As for PQFY, the enrichment ratio is no more than 0.25.

Turning to VNCH, the enrichment ratio came to 7.43.

Turning to RPAC, the enrichment ratio is no more than 0.25.

Turning to KGLN, the enrichment ratio is no more than 0.25.

As for VCKL, the enrichment ratio is no more than 0.25.

As to VNEY, the enrichment ratio is no more than 0.25.

On to HNTW, for which the enrichment ratio was no more than 0.25.

Consider INQA, for which the enrichment ratio was no more than 0.25.

In the case of HVLS, the enrichment ratio was no more than 0.25.

On to TASV, for which the enrichment ratio was found to be 17.9.

For FQTY, the enrichment ratio was no more than 0.25.

YQCC: the enrichment ratio was no more than 0.25.

On to FGKT, for which the enrichment ratio is no more than 0.25.

For the variant VEYT, the enrichment ratio is no more than 0.25.

IQGY: the enrichment ratio is no more than 0.25.

On to ILDK, for which the enrichment ratio was no more than 0.25.

Regarding FDTF, the enrichment ratio was no more than 0.25.

As for GYTP, the enrichment ratio is no more than 0.25.

As for HLQG, the enrichment ratio is no more than 0.25.

As to GRAW, the enrichment ratio was no more than 0.25.

With IMKG, the enrichment ratio was no more than 0.25.

For the variant FTCW, the enrichment ratio is no more than 0.25.

MRLG: the enrichment ratio is no more than 0.25.

YCNI: the enrichment ratio is no more than 0.25.

Regarding YYVI, the enrichment ratio is no more than 0.25.

For RRCW, the enrichment ratio is no more than 0.25.

As for PILV, the enrichment ratio is no more than 0.25.

Consider GRVK, for which the enrichment ratio is no more than 0.25.

Turning to KGGC, the enrichment ratio was no more than 0.25.

Turning to GEHI, the enrichment ratio is no more than 0.25.

With KWAV, the enrichment ratio is no more than 0.25.

For the variant DDIH, the enrichment ratio is no more than 0.25.

Take LMDA: the enrichment ratio was no more than 0.25.

Regarding SPTS, the enrichment ratio was no more than 0.25.

With MYLT, the enrichment ratio was no more than 0.25.

Consider QGQW, for which the enrichment ratio is no more than 0.25.

In the case of MELL, the enrichment ratio is 3.52.

For the variant TWWT, the enrichment ratio is no more than 0.25.

In the case of LGSW, the enrichment ratio is no more than 0.25.

For YLRN, the enrichment ratio is no more than 0.25.

For MEPC, the enrichment ratio was no more than 0.25.

On to FSKP, for which the enrichment ratio is no more than 0.25.

Consider TDYP, for which the enrichment ratio is no more than 0.25.

For GWVG, the enrichment ratio is no more than 0.25.

In the case of NPWC, the enrichment ratio was no more than 0.25.

As for YIPQ, the enrichment ratio is no more than 0.25.

On to VSGE, for which the enrichment ratio was no more than 0.25.

Turning to PRQF, the enrichment ratio was no more than 0.25.

For the variant EDFT, the enrichment ratio was no more than 0.25.

For MWAF, the enrichment ratio is no more than 0.25.

As to HDPC, the enrichment ratio was no more than 0.25.

On to FNPQ, for which the enrichment ratio is no more than 0.25.

With VPYW, the enrichment ratio was no more than 0.25.

Turning to QYMD, the enrichment ratio was no more than 0.25.

For the variant EAIN, the enrichment ratio is no more than 0.25.

As to PIDG, the enrichment ratio is no more than 0.25.

Consider SPPI, for which the enrichment ratio was no more than 0.25.

As to YFAI, the enrichment ratio is no more than 0.25.

As to NCAI, the enrichment ratio is no more than 0.25.

On to NAAW, for which the enrichment ratio was no more than 0.25.

On to RDAN, for which the enrichment ratio was no more than 0.25.

As for ASPQ, the enrichment ratio is no more than 0.25.

As to AYII, the enrichment ratio came out at 0.326.

As to IRVH, the enrichment ratio is no more than 0.25.

As for NCKY, the enrichment ratio is no more than 0.25.

In the case of DSDG, the enrichment ratio is no more than 0.25.

For the variant THIV, the enrichment ratio was no more than 0.25.

For the variant ASKC, the enrichment ratio is no more than 0.25.

On to HPKS, for which the enrichment ratio was no more than 0.25.

On to SPGI, for which the enrichment ratio is no more than 0.25.

In the case of WANK, the enrichment ratio was no more than 0.25.

Take GTMS: the enrichment ratio is no more than 0.25.

Regarding METF, the enrichment ratio is no more than 0.25.

On to ENMA, for which the enrichment ratio is no more than 0.25.

YFQH: the enrichment ratio was no more than 0.25.

In the case of DSEF, the enrichment ratio was no more than 0.25.

For the variant VESH, the enrichment ratio was no more than 0.25.

Turning to MFTV, the enrichment ratio was no more than 0.25.
